Source: PubChem BioAssay AID1794842 (National Center for Advancing Translational Sciences (NCATS), 2023)
Fewer than 10 of roughly 2,800 compounds were called active. The call rests on the fitted dose curve; in most records, active means well fitted curve in the direction sought with a large enough effect; inconclusive means small, poorly fitted or top-dose-only effect, or another doubt; inactive means no such curve, though single readings can be large or run the other way. The list shows a part of the results.

molecular target: Metallo-beta-lactamase type 2 (Klebsiella pneumoniae) (UniProt C7C422); test: qHTS to identify inhibitors of the New Delhi Metallo-beta-lactamase (NDM): Meropenem screen against the machine-based learning selections.; further: % of control where 0% means no effect; details: Purified NDM-1, meropenem hydrolysis, absorbance 300 nm; at 38.4 µM (top of the series) unless noted
In short: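 NDM-1 (2 nM final) in 50 mM HEPES pH 7.0, 1 uM Zn2SO4, 0.01% Tween20 was preincubated with compounds for >30 min. Nitrocefin (16.7 uM final) was read at 485 nm after 15 min, and meropenem (50 uM final) at 300 nm after 30 min.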

UniProt C7C422, sequence (C7C422 whole entry, looked up): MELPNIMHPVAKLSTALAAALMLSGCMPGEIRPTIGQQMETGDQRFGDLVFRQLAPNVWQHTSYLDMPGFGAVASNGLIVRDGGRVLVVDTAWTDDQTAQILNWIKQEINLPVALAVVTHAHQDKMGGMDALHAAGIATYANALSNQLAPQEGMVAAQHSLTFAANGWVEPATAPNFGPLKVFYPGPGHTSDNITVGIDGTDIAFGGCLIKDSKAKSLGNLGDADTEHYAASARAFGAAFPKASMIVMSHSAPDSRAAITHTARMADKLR

Activity change, negative = inhibition, inactive:
O=C(NC1CCN(c2cc(-c3ccc(Cl)cc3)[nH]n2)C1)c1ccncc1 (stereo not drawn) -0.646%
CN(C)Cc1cn([C@H]2CO[C@H]3[C@@H]2OC[C@H]3OC(=O)Nc2ccc(C(C)(C)C)cc2)nn1 -1.48% [at 57.5 µM]
CNC(=O)C1CCN(C(=O)N2CC3CC(C2)[C@H]2CCCC(=O)N2C3)CC1 (stereo partly drawn) 0.794%
O=C(NC[C@H]1COCc2nc3cc(F)ccc3n21)C1CC1 1.94% [at 76.7 µM]
Cc1cccc(CC(=O)N2CCC[C@H]2c2nc(-c3ccccc3)no2)c1 0.638%
Cc1cccc(OCCc2noc(C3CCCNC3)n2)c1 (stereo not drawn) -1.31%
COc1ccc(S(=O)(=O)N2CCc3c(C(=O)NC4CC4)cccc32)cc1 -2.8%
O=C(C[C@@H]1CCNC[C@@H]1Cc1cc(-c2ccc(F)cc2)on1)NCc1ccccc1 -1.28% [at 57.5 µM]
CS(=O)(=O)N1CCC(C2CCN(C(=O)Cc3cccc(F)c3)C2)CC1 (stereo not drawn) 0.205%
O=C(O)c1ccc(CN2CC[C@@H](c3ccc4c(c3)OCO4)[C@H](O)C2)cc1 1.1%
CC(NC(=O)c1ccc(C(C)(C)C)cc1)C(=O)N1CCN(c2ccccn2)CC1 (stereo not drawn) -2.8%
CN1CCCC2(C1)CN(Cc1cccnc1)c1ccc(C(=O)Nc3ccccc3)cc12 (stereo not drawn) 7.09% [at 57.5 µM]
Cc1cc(C(=O)N[C@H]2[C@H](O)[C@H](O)C[C@@H]2c2cccnc2)no1 0.945% [at 57.5 µM]
Cc1cc(-c2cc3c(cn2)CN(Cc2ccccc2O)CCN3)ccn1 -0.469% [at 57.5 µM]
NC(=O)c1ccc(NC(=O)C[C@H]2NC(=O)c3ccccc3NC2=O)cc1 3.35%
CSc1ccc(-c2ccc3c(c2)C(=O)N2CCN(C(=O)CCC(=O)O)C[C@H]2C(=O)N3)cc1 11.9%
CSc1cccc(NC(=O)N[C@H]2CCN3C(=O)[C@H](CC4CCCCC4)NC(=O)[C@@H]3C2)c1 2.02%
Cc1noc(C)c1CCC(=O)NC(c1cnn(C)c1)C1CC(O)C1 (stereo not drawn) -3.01%
CCCN1C(=O)Cc2ccccc2C1C(=O)NCc1cccc(F)c1 (stereo not drawn) 0.712%
CNC(=O)[C@@H](C1CC1)N1CCC[C@H]1C(=O)NC1CC1 -0.0114% [at 76.7 µM]
CCOC(=O)N1CCC(N2CCCCC(N)C2)CC1 (stereo not drawn) 28.6%
OC1(c2csc(CN3CCN(c4ccccn4)CC3)n2)CCN(CC2CCCCC2)CC1 0.0529%
CN(C)CCOCC1(C)COc2ccc(C(=O)Nc3ccc4[nH]ccc4c3)cc2N1 (stereo not drawn) 4.2% [at 57.5 µM]
Fc1ccc(-c2cc(CC3(NC4CCCCC4)COC3)no2)cc1 -1.11% [at 57.5 µM]
COCC(=O)NC[C@@H]1C=C(C)[C@H](CC(=O)Nc2ccccn2)C[C@H]1C(C)C 2.59% [at 57.5 µM]
Cc1noc2c(-c3cccc(CO)c3)cc(-c3cccs3)nc12 6.84% [at 57.5 µM]
O=C(CCc1ccc(O)cc1)N1CCN(Cc2ccccc2)CC(O)C1 (stereo not drawn) -0.0853%
O=C(Cc1c[nH]c2ncc(-c3cccc(F)c3)cc12)NCc1cccnc1 4.52% [at 57.5 µM]
CS(=O)(=O)c1ccc(CN2CCC[C@H]2c2nc(-c3ccnc(N4CCC(C(N)=O)CC4)c3)no2)cc1 2.02%
CCNC(=O)[C@@H]1CCCN1[C@@H](C(=O)NC)c1ccccc1F 54.3% [at 57.5 µM]
Cc1ccc(CCNC(=O)Cn2nc(C)n(CCc3ccccc3)c2=O)o1 0.0117%
Cc1oc(C(O)c2cccc(O)c2)nc1C(=O)Nc1ccc(N2CCOCC2)cc1 (stereo not drawn) 15.8% [at 57.5 µM]
O=C(COc1ccccc1)N1CC[C@H]2CC(=O)N(c3ccccc3)CC[C@H]2C1 -1.14% [at 57.5 µM]
COc1cccc(N2C(=O)N[C@@H]3CCN(S(=O)(=O)c4ccccc4)[C@@H]3C2=O)c1 0.866% [at 57.5 µM]
O=C(O)[C@@H]1CN(C(=O)c2ccc(=O)[nH]c2)C[C@H]1c1ccc2c(c1)OCO2 4.89%
Cc1ccc(-c2nc(CNC(=O)C3CCNC3)[nH]c2-c2ccccn2)cc1 (stereo not drawn) 61%
CC(=O)NC1(C)CCN(Cc2cccc(-c3ccc4ccccc4c3)c2)C1 (stereo not drawn) 0.607% [at 57.5 µM]
O=C(NCC(F)F)C1CN(c2ccccc2)C(=O)N1 (stereo not drawn) -1.2% [at 57.5 µM]
CCCn1nc(C)c(-c2cc(C(=O)N3CCc4c(nc5cc(-c6ccccc6)[nH]n5c4=O)C3)[nH]n2)c1C 1.03%
CN(Cc1ccc(F)cc1)c1ccc2ncc(Nc3cccc(O)c3)n2n1 41.8% [at 57.5 µM]
Nc1nc(NCCNC(=O)c2ccccc2Cl)cc(C2CC(O)C2)n1 (stereo not drawn) -0.118%
O=c1n(-c2ccc(C(F)(F)F)cc2)nc2n1CCN(Cc1ccc(C(F)(F)F)cc1)C2 43.6%
NC1CCCCN(C(=O)c2ccc3n[nH]nc3c2)C1 (stereo not drawn) 3.69%
CCCCN1C(=O)[C@@H]2C[C@@H](O)CN2C2(CN(CC3CC3)C2)C1=O 1.28% [at 57.5 µM]
CC(C)n1cnnc1-c1nn(C)c2c1CN(C(=O)Cc1c[nH]c3ccccc13)CC2 0.268%
CSc1ccc(C(C(=O)O)N2CCN(Cc3csc(C)n3)CC2)cc1 (stereo not drawn) 37%
OCc1cccc(-c2ccc3ncc(Nc4ccccc4Cl)n3n2)c1 33.7% [at 57.5 µM]
CC(C)(CC(=O)O)CC(=O)N1CCN2C(=O)N(CCc3cccs3)C(=O)[C@H]2C1 2.11% [at 57.5 µM]
CCc1[nH]nc(-c2nc(C3CC3)nn2-c2ccc(S(N)(=O)=O)cc2)c1C -3.48%
COC(=O)[C@@H](Cc1cccnc1)NC(=O)[C@H]1CN(C(=O)Nc2ccccc2)CCN1S(=O)(=O)c1ccccc1 2.46%
O=C(N[C@@H]1COCC[C@@H]1OCc1ccccc1)c1nc2ncccc2[nH]1 26.5%
Cn1ccc2c(C(=O)NCCc3cnc[nH]3)nc(-c3cccc(CO)c3)cc21 30% [at 57.5 µM]
Cc1ncc2c(c1CNC(=O)CCn1c(=O)[nH]c3ccccc31)CCNC2 20.6%
Cc1ccccc1-c1cnc2[nH]cc(CC(=O)NCc3ccco3)c2c1 2.07% [at 57.5 µM]
COCC1CN(C(C)=O)CC12CCN(Cc1cccc(C#N)c1)CC2 (stereo not drawn) 0.783%
CN1Cc2ccc(NCc3ccccc3)nc2C(C)(C(=O)NCCc2cnc[nH]2)C1 (stereo not drawn) 7.8% [at 57.5 µM]
Cc1cc(C(=O)N[C@@H]2CCC[C@@H](C(=O)N3CCN(C)CC3)CC(=O)N(C)C2)no1 1.85% [at 57.5 µM]
C[C@]1(O)CCN(C(=O)CC(c2ccccc2)c2ccccc2)C[C@@H]1O 0.134%
Cc1ccc(S(=O)(=O)N2C[C@@H]3OCC(=O)N(Cc4ccc(OC(F)(F)F)cc4)[C@@H]3C2)cc1 -1.95%
COc1ccc(CN2Cc3[nH]cnc3C[C@H]2C(=O)NCc2ccco2)cc1 7.49% [at 57.5 µM]
CCS(=O)(=O)N1CCC(CC(=O)NCc2ccccc2)C1 (stereo not drawn) -1.58%
CNC(=O)N1CCOc2ccc(CCC(=O)NCC3CC3)cc2C1 0.125%
Cn1ccnc1CN1C[C@@H](F)[C@@H](OCc2nc3ccc(C(F)(F)F)cc3[nH]2)C1 7.16% [at 57.5 µM]
O=C(c1cc2cn(C3CC3)cc2s1)N1CCc2ccccc2C1 6.46%
COc1ncccc1C(=O)N1CCc2c(nc(-c3cccnc3)[nH]c2=O)C1 3.18%
O=C(Nc1ccc([C@H]2OCC(=O)N(Cc3cccnc3)[C@@H]2CO)cc1)c1ccnc(Cl)c1 3.73%
CC(=O)NC1CCN(Cc2nc(-c3sccc3C)oc2C)CC1 0.509%
Cc1ccc(C(=O)N2CCOC(c3ccc(Cl)c(Cl)c3)C2)c(=O)n1C (stereo not drawn) -1.18%
O=C(O)c1cccc(-c2n[nH]c3c2CC(=O)N(CCOc2ccccc2)C3)c1 8.03% [at 57.5 µM]
Cc1oc(C(O)c2ccccc2F)nc1C(=O)Nc1ccccc1C(N)=O (stereo not drawn) 5.65% [at 57.5 µM]
Cc1ccoc1-c1nc2ccncc2[nH]1 19.5% [at 76.7 µM]
O=C1CCCN1CCCN1C(=O)[C@H]2CN(Cc3ccc(F)c(Cl)c3)C[C@H]2C1=O -0.265%
COCCN1C(=O)[C@@H]2C[C@@H](CN2C(=O)NCc2ccccc2)Oc2ccccc21 0.0797% [at 57.5 µM]
COc1cccc(CC(=O)NC2CCN(c3cnn(C)c(=O)c3)CC2)c1 5.15%
CC1=C[C@@H](CC#N)[C@H](C(C)C)C[C@H]1CC(=O)NC1CC1 -1.03% [at 76.7 µM]
CN(CC1CCOC1)C(=O)Nc1cccc(Br)c1 (stereo not drawn) -0.357%
C=CCN(C)C(=O)[C@@H](C)C1CC[C@@]2(C)Cc3sc(-c4cccnc4)nc3[C@@H](C)[C@@H]2[C@H]1O (stereo partly drawn) 9.88% [at 57.5 µM]
COc1ccc(C(=O)N2CCc3ccc(C(=O)O)cc32)cc1 6.76%
